Test results: EP0251446B1, “Non-human Carbonyl hydrolase mutants, DNA sequences and vectors encoding same and hosts transformed with said vectors” (GENENCOR INTERNATIONAL, INC., priority 1986, dated 1988)
The name of at least one read-out is uncertain. *1 amine or outer side, *2 acyl side, *3 side chain or, on linkers, in order; H or OH if unused. Where a SMILES comes first, the peptide text is derived from it. The star is where a group is joined. pNA = O=[N+]([O-])c1ccc(N*)cc1; Suc = O=C(CCC(=O)[*:2])[*:1]

Each molecule was assayed against T1, B. amyloliquefaciens subtilisin, wild type (WT, Gly166) (Bacillus amyloliquefaciens, UniProt P00782) (assay: Kinetics of hydrolysis of succinyl-Ala-Ala-Pro-X-p-nitroanilide substrates (progress curve analysis)). Conditions: Table VIII; substrate succinyl-L-AlaL-AlaL-ProL-[X]-p-nitroanilide, X = label (P1 amino acid).
T1 construct: at various amino acid residues within the mature form of the subtilisin molecule; made in house; host or cells: Bacillus subtilis (secreted, culture supernatant)
T1 sequence (P00782 108-382): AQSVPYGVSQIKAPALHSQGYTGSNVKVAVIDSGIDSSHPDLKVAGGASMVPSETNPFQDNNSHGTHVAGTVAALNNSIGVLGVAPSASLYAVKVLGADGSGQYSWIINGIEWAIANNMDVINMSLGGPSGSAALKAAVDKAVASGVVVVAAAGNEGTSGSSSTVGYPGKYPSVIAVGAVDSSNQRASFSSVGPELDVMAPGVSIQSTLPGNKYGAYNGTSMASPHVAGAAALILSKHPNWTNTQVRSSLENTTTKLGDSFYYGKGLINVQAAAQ
Type: biochemical
Text: A change in substrate specificity is defined as a difference between the kcat/Km ratio of the precursor carbonyl hydrolase and that of the hydrolase mutant. The kcat/Km ratio is a measure of catalytic efficienty. Carbonyl hydrolase mutants with increased or diminished kcat/Km ratios are described in the examples. Generally, the objective will be to secure a mutant having a greater (numerically large) kcat/Km ratio for a given substrate, thereby enabling the use of the enzyme to more efficiently act on a target substrate. A substantial change in kcat/Km ratio is preferably at least 2-fold increase or decrease. However, smaller increases or decreases in the ratio (e.g., at least 1.5-fold) are also considered substantial. An increase in kcat/Km ratio for one substrate may be accompanied by a reduction in kcat/Km ratio for another substrate. […] Km and kcat are measured in accord with known procedures, as described in EPO Publication No. 0130756 or as described herein.
Wild-type subtilisin was purified from B. subtilis culture supernatants expressing the B. amyloliquefaciens subtilisin gene (Wells, J.A., et al. (1983) Nucleic Acids Res. 11, 7911-7925) as previously described (Estell, D.A., et al. (1985) J. Biol. Chem. 260, 6518-6521). Details of the synthesis of tetrapeptide substrates having the form succinyl-L-AlaL-AlaL-ProL-[X]-p-nitroanilide (where X is the P1 amino acid) are described by DelMar, E.G., et al. (1979) Anal. Biochem. 99, 316-320. Kinetic parameters, Km(M) and kcat-(s-^1) were measured using a modified progress curve analysis (Estell, D.A., et al. (1985) J. Biol. Chem. 260, 6518-6521). Briefly, plots of rate versus product concentration were fit to the differential form of the rate equation using a non-linear regression algorithm. Errors in kcat and Km for all values reported are less than five percent. The various substrates in Table VIII are ranged in order of decreasing hydrophobicity. Nozaki, Y. (1971), J. Biol. Chem. 246, 2211-2217; Tanford C. (1978) Science 200, 1012).

Compound	1/Km	kcat/Km
C[C@H](NC(=O)CCC(=O)O)C(=O)N[C@@H](C)C(=O)N1CCC[C@H]1C(=O)N[C@@H](C)C(=O)Nc1ccc([N+](=O)[O-])cc1 [Ala] (Suc-AAPA-pNA)	5,500 M^-1	–
C[C@H](NC(=O)CCC(=O)O)C(=O)N[C@@H](C)C(=O)N1CCC[C@H]1C(=O)N[C@@H](CCC(N)=O)C(=O)Nc1ccc([N+](=O)[O-])cc1 [Gln] (Suc-AAPQ-pNA)	2,200 M^-1	–
C[C@H](NC(=O)CCC(=O)O)C(=O)N[C@@H](C)C(=O)N1CCC[C@H]1C(=O)N[C@@H](CCC(=O)O)C(=O)Nc1ccc([N+](=O)[O-])cc1 [Glu] (Suc-AAPE-pNA)	32 M⁻¹	16 s-^1M-1
C[C@H](NC(=O)CCC(=O)O)C(=O)N[C@@H](C)C(=O)N1CCC[C@H]1C(=O)NCC(=O)Nc1ccc([N+](=O)[O-])cc1 [Gly] (Suc-AAPG-pNA)	8,300 M^-1	–
C[C@H](NC(=O)CCC(=O)O)C(=O)N[C@@H](C)C(=O)N1CCC[C@H]1C(=O)N[C@@H](Cc1c[nH]cn1)C(=O)Nc1ccc([N+](=O)[O-])cc1 [His] (Suc-AAPH-pNA)	1,600 M^-1	–
CC(C)C[C@H](NC(=O)[C@@H]1CCCN1C(=O)[C@H](C)NC(=O)[C@H](C)NC(=O)CCC(=O)O)C(=O)Nc1ccc([N+](=O)[O-])cc1 [Leu] (Suc-AAPL-pNA)	3,100 M^-1	–
CSCC[C@H](NC(=O)[C@@H]1CCCN1C(=O)[C@H](C)NC(=O)[C@H](C)NC(=O)CCC(=O)O)C(=O)Nc1ccc([N+](=O)[O-])cc1 [Met] (Suc-AAPM-pNA)	9,400 M^-1	–
C[C@H](NC(=O)CCC(=O)O)C(=O)N[C@@H](C)C(=O)N1CCC[C@H]1C(=O)N[C@@H](Cc1ccccc1)C(=O)Nc1ccc([N+](=O)[O-])cc1 [Phe] (Suc-AAPF-pNA)	7,100 M^-1	360,000 s-^1M-1
C[C@H](NC(=O)CCC(=O)O)C(=O)N[C@@H](C)C(=O)N1CCC[C@H]1C(=O)N[C@@H](CO)C(=O)Nc1ccc([N+](=O)[O-])cc1 [Ser] (Suc-AAPS-pNA)	1,500 M^-1	–
C[C@H](NC(=O)CCC(=O)O)C(=O)N[C@@H](C)C(=O)N1CCC[C@H]1C(=O)N[C@@H](Cc1ccc(O)cc1)C(=O)Nc1ccc([N+](=O)[O-])cc1 [Tyr] (Suc-AAPY-pNA)	40,000 M^-1	–
